PubChem BioAssay AID686978 (National Center for Advancing Translational Sciences (NCATS), 2013)
“And” between values parts separate entries of the source, which are not always exact repeats. Equal entries are not always repeated. The whole screen tested about 420,000 compounds, of which about 64,000 (15%) were called active. Inconclusive means that the source gave no clear call. Such entries were picked first, then a sample of the others. Calls follow the shape of the dose curve; as a rule, active = well fitted inhibition curve with a large enough effect; inconclusive = small, poorly fitted or top-dose-only effect; inactive = flat fitted curve, though single readings scatter. Where the call is inconclusive, the potency comes from a doubtful curve fit. More than one record can exist for a structure, and the calls need not agree.

Test: qHTS for Inhibitors of human tyrosyl-DNA phosphodiesterase 1 (TDP1): qHTS in cells in absence of CPT; also: nearly all actives have a fitted effect of over 55% in size
Conditions: DT40 Tdp1-/- hTDP1 cells, no CPT, ATP luminescence, 48 h; activity change, negative = growth inhibition: at 46.2 µM (top of the series) unless noted
Method in brief: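 Seeded 400 DT40-hTDP1 cells/well (vehicle DMSO, no 20 nM CPT); pinned compounds; ≥48 hr at 37 °C; CellTiter-Glo luminescence as viability measure.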
% is scaled to controls: 0 for no effect and ±100 for the full control effect; potency is read from the fitted curve at half-maximal effect; tags tell the direction and shape of the fitted curve.

SMILES	Potency	activity change, negative = growth inhibition
CC(C)CC1C(=O)N(Cc2cn(Cc3ccco3)nn2)CCS(=O)(=O)N1Cc1ccc(-c2ccccc2)cc1 (stereo not given)	inconclusive: 23.1 µM [inhibitor, single point]	–
COc1cccc(C(=O)Nc2cccc(-c3ccc4nncn4n3)c2)c1OC	inconclusive: 18.4 µM [inhibitor, single point]	–
CCOC(=O)c1cccc(NC(=O)CSc2nnc(CNc3ccc(C)cc3)n2CC)c1	inconclusive: 13 µM [inhibitor, partial curve, poor fit]	–
COc1ccccc1-c1nc(NCCc2cnc[nH]2)c2ccccc2n1	inconclusive: 29.1 µM [inhibitor, single point]	–
Cc1cccc(C(=O)OCc2cc(=O)n3ccsc3n2)c1	–	inactive: 4.65%
COc1ccc(S(=O)(=O)Cc2ccc(C(=O)NC3CCCCCC3)o2)cc1	inconclusive: 2.59 µM [inhibitor, partial curve]	–
O=C(Nc1ccccc1O)c1cccc(NC(=O)c2ccco2)c1	active: 13 µM	–
O=C(N/N=C/C=C/c1ccccc1)c1cnccn1	–	inactive: 2.85%
CC(C)c1ccc(NC(=O)C2CCCCC2C(=O)O)cc1 (stereo not given)	inconclusive: 25.9 µM [inhibitor, single point]	–
Cc1nn(-c2ccccc2)c2sc(C(=O)N(CC(=O)NC(C)(C)C)Cc3ccco3)cc12	inconclusive: 20.6 µM [inhibitor, single point]	–
CCOC(=O)CSc1nc2ccccc2c(=O)n1CCC(=O)NCCc1ccc(OC)c(OC)c1	–	inactive: -20%
COc1ccc(CNC(=O)C2CCN(S(=O)(=O)c3c(C)noc3/C=C/c3ccccc3F)CC2)cc1	–	inactive: -15.6%
CCOC(=O)c1c(NC(=O)CN2CCN(C(=O)C3CCCO3)CC2)sc(C)c1C (stereo not given)	inconclusive: 29.1 µM [inhibitor, single point]	–
CCOc1ccc(C(=O)NC(=S)N2CCN(c3ccc(C(F)(F)F)cc3[N+](=O)[O-])CC2)cc1	inconclusive: 14.6 µM [inhibitor, single point]	–
O=C(NNC1=C(C(=O)C(F)(F)F)CCC1)c1cccc(O)c1	inconclusive: 29.1 µM [inhibitor, single point]	–
Cc1c(Cl)cccc1NC(=O)CN1CCC(NC(=O)C2CCCCC2)CC1	inconclusive: 14.6 µM [inhibitor, single point]	–
CC1C(=O)C(C)C(c2ccc(O)cc2)NC1c1ccc(O)cc1 (stereo not given)	–	inactive: -8.1%
COc1ccccc1NC(=O)CSc1c2c(nc3ccccc13)CCC2	inconclusive: 29.1 µM [inhibitor, single point]	–
CCN1C(=O)[C@H]2[C@H]3CN=C(SCc4ccc(C)cc4)N3[C@@](CC)(C(=O)OC)[C@H]2C1=O	inconclusive: 29.1 µM [inhibitor, single point]	–
COc1cccc(C(=O)NNC(=O)C(=O)Nc2cccc3ccccc23)c1	inconclusive: 16.4 µM [inhibitor, single point]	–
O=c1c2c3nc4ccccc4nc3n(-c3ccc4c(c3)OCCO4)c2ncn1C1CCCC1	inconclusive: 23.1 µM [inhibitor, single point]	–
CC(=O)n1cc(/C=N/NC(=O)c2ccc([N+](=O)[O-])cc2)c2ccccc21	inconclusive: 5.8 µM [inhibitor, partial curve]	–
O=C(C(Cc1ccccc1)n1cccc1)N1CCN(c2cccc(Cl)c2)CC1 (stereo not given)	inconclusive: 29.1 µM [inhibitor, single point]	–
COc1ccc(N2C(=O)C3CCCN3C2=O)cc1 (stereo not given)	–	inactive: -8.89%

SMILES	Potency	activity change, negative = growth inhibition
O=C(Nc1ccc(N2CCCC2)cc1)c1cccc(-c2cc3ccccc3oc2=O)c1	active: 23.1 µM	–
O=C(COc1ccc(Cl)cc1Cl)NCC1(N2CCOCC2)CCCCC1	active: 20.6 µM	–
CC(C)c1ccc(/C=C2\SC(=S)N(CCC(=O)NCCCn3ccnc3)C2=O)cc1	inconclusive: 20.6 µM [inhibitor, partial curve]	–
Fc1ccc(CNc2nc3ccccc3n3nnnc23)cc1	–	inactive: -27.9%
CCCNC(=O)C1(C)CCCN(C(=O)c2cc(C)nn2C(C)(C)C)C1 (stereo not given)	inconclusive: 29.1 µM [inhibitor, single point]	–
Cc1ccc(S(=O)(=O)N[C@H](C(=O)N2CCC(C(=O)N[C@H](C(=O)O)c3ccccc3)CC2)C(C)C)cc1	–	inactive: -13.9%
CCCCc1nc(SCC(=O)Nc2nnc(C(C)C)s2)n[nH]1	–	inactive: -3.34%
CN(C)Cc1c(C(=O)N/N=C/c2ccc(OCc3c(F)cccc3Cl)cc2)nnn1-c1nonc1N	active: 13 µM	–
c1ccc(SCc2nc3ccccc3[nH]2)nc1	inconclusive: 25.9 µM [inhibitor, single point]	–
O=C(COc1ccc(Cl)cc1)NCCNC(=O)c1cnccn1	–	inactive: 1.21%
C/C(=N\NC(=O)c1nnn(-c2nonc2N)c1CSc1ccc(C)cc1)c1cccnc1	inconclusive: 23.1 µM [inhibitor, single point]	–
O=C(CN1CCCC1)NC(c1ccccc1)c1ccccc1	active: 16.4 µM	–
O=C(Nc1ccc2c(c1)OCCO2)NC12CC3CC(CC(C3)C1)C2	inconclusive: 23.1 µM [inhibitor, single point]	–
O=C(COC(=O)c1ncc(Cl)c(Cl)c1Cl)NC(=O)c1ccccc1	–	inactive: -1.54%
CC(=O)Nc1nc2n(n1)C(c1ccc(F)cc1)C=C(c1ccc(Cl)cc1)N2 (stereo not given)	inconclusive: 29.1 µM [inhibitor, single point]	–
Cc1csc(NC(=O)CSc2nc3sc(C)c(C)c3c(=O)[nH]2)n1	–	inconclusive: -34.6% [inhibitor]
CC(C(=O)NCCSCc1cccc(Cl)c1)N(c1ccccc1)S(C)(=O)=O (stereo not given)	inactive and active: 13 µM	–
O=C(CSc1ccc2nnc(-c3cccnc3)n2n1)Nc1ccc(F)cc1	–	inactive: 4.82%
COc1ccc(N(C)C(=O)c2cn(CC(C)C)c(=O)c3cc(OC)c(OC)cc23)cc1	inconclusive: 32.6 µM [inhibitor, partial curve, poor fit]	–
O=C(CNC(=O)c1ccco1)OCN1C(=O)c2ccccc2C1=O	–	inconclusive: -30.6% [inhibitor]
CCOc1cc(NS(=O)(=O)CC)c(OCC)cc1NC(=O)c1ccco1	inconclusive: 25.9 µM [inhibitor, single point]	–
Cc1c(OCC(=O)N2C[C@H]3C[C@@H](C2)c2cccc(=O)n2C3)ccc2c3c(c(=O)oc12)CCCC3	inconclusive: 16.4 µM [inhibitor, single point]	–
CN1c2ccccc2C2(C)CCCC3=Cc4cc([N+](=O)[O-])cc([N+](=O)[O-])c4OC312 (stereo not given)	active: 23.1 µM	–
CC(=O)OCC(COC(C)=O)OC(C)=O	inactive	–

SMILES	Potency	activity change, negative = growth inhibition
CCC(C)Nc1nc(N)c([N+](=O)[O-])c(Nc2cc(OC)ccc2OC)n1 (stereo not given)	inconclusive: 18.4 µM [inhibitor, single point]	–
COc1ccc(Nc2nc(C(=O)N3CCc4ccccc4C3)cs2)cc1	inconclusive: 18.4 µM [inhibitor, partial curve]	–
COc1ccc(N2C(=O)CC(Sc3nc(C)c4c(n3)CCCC4)C2=O)cc1 (stereo not given)	active: 23.1 µM	–
COc1ccc(C2Nc3ccccc3C(=O)N2c2ccc(C)cc2)cc1COc1ccccn1 (stereo not given)	–	inactive: -20.2%
O=C(c1ccc2c(c1)N(Cc1ccccc1)C(=O)c1ccccc1S2)N1CCCC1	active: 9.2 µM	–
Cc1cc(N2CCN(C)CC2)nc2ccc(NC(=S)NCc3cccs3)cc12	inconclusive: 18.4 µM [inhibitor, single point]	–
CCOC(=O)Nc1cccc(OCC(=O)Nc2ccccc2OCC)c1	inconclusive: 29.1 µM [inhibitor, single point]	–
CC(C)/C=C1\CCc2c([nH]c3ccccc23)C1=O	–	inactive: -5%
Cc1ccccc1N=C(N)Nc1ccccc1C	inactive and inconclusive: 23.7 µM [inhibitor, partial curve, poor fit]	–
COc1cc(Nc2ccc(C)cc2)c([N+](=O)[O-])nc1[N+](=O)[O-]	active: 2.59 µM	–
O=C(Cc1cccs1)N[C@@H]1c2ccccc2CC[C@@H]1OCc1ccccc1	–	inactive: -9.15%
CN(CCc1ccccn1)C(=O)c1cc(COc2ccc(F)cc2F)on1	inconclusive: 14.6 µM [inhibitor, partial curve, poor fit]	–
CC(CCCN(C)C)C(Cc1ccccc1)c1ccccc1 (stereo not given)	inconclusive: 29.1 µM [inhibitor, single point]	–
Cc1ccc(N2CC(C(=O)Nc3nnc(SCC(=O)NCC4CCCO4)s3)CC2=O)cc1 (stereo not given)	–	inactive: 2.08%
O=C(COc1ccc(F)cc1Br)Nc1ccccc1N1CCOCC1	inconclusive: 29.1 µM [inhibitor, single point]	–
O=C(COC(=O)c1ccccc1NCCO)Nc1ccc(S(=O)(=O)NC2=NCCCCC2)cc1	–	inactive: -29.1%
O=C(CN(Cc1ccc(F)cc1)S(=O)(=O)c1ccc(S(=O)(=O)N2CCOCC2)cc1)Nc1ccccc1	–	inactive: -10.9%
Cc1ccccc1-c1nc(CN2CCC(C(=O)NC3CCN(Cc4ccccc4)CC3)CC2)c(C)o1	inconclusive: 6.51 µM [inhibitor, partial curve]	–
O=c1cc(-c2ccccc2O)oc2ccc3ccccc3c12	–	inconclusive: -4.05% [inhibitor]
COc1cccc(NC(=O)CN(C)C(=O)CSc2nc3ccccc3s2)c1	inconclusive: 29.1 µM [inhibitor, single point]	–
O=C(c1ccccc1)c1ccc(N2CCCC2)cc1	inconclusive: 25.9 µM [inhibitor, single point]	–
CSc1ccc(NC(=O)C2(C)CCN2C(=O)Cc2ccc(C(C)(C)C)cc2)cc1 (stereo not given)	inconclusive: 20.6 µM [inhibitor, single point]	–
